# The list shows a part of the results.
# B1: FBG3 (Homo sapiens), Q9H4M3 (protein)
# chain: MAVGNINELPENILLELFTHVPARQLLLNCRLVCSLWRDLIDLVTLWKRKCLREGFITEDWDQPVADWKIFYFLRSLHRNLLHNPCAEEGFEFWSLDVNGGDEWKVEDLSRDQRKEFPNDQVKKYFVTSYYTCLKSQVVDLKAEGYWEELMDTTRPDIEVKDWFAARPDCGSKYQLCVQLLSSAHAPLGTFQPDPATIQQKSDAKWREVSHTFSNYPPGVRYIWFQHGGVDTHYWAGWYGPRVTNSSITIGPPLP
# What was measured:
# Assay in all cases: glycan array binding signal (z-score within array); higher = stronger binding
# Conditions in all cases: glycan notation: IUPAC condensed, linker removed
# GlcNAc(b1-3)GalNAc = biological target: GlcNAc(b1-3)GalNAc
# Summary of the method: (§1)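 From the Consortium for Functional Glycomics database, 3228 arrays were curated, keeping only those whose protein sequence was available. Binding is given as a within-array Z-score averaged across arrays sharing a protein sequence and across linkers. Negative Z-scores can be read as non-binding.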
# [1] = biological target: GlcNAc(b1-3)[GlcNAc(b1-4)][GlcNAc(b1-6)]GlcNAc
# Summary of the method: as §1
# [2] = biological target: GlcNAc(b1-3)[GlcNAc(b1-6)]Gal(b1-4)GlcNAc
# Summary of the method: as §1
# [3] = biological target: GlcNAc(b1-3)[GlcNAc(b1-6)]GalNAc
# Summary of the method: as §1
# [4] = biological target: GlcNAc(b1-3)[GlcNAc(b1-6)]GlcNAc
# Summary of the method: as §1
# [5] = biological target: GlcNAc(b1-3)[GlcNAc(b1-6)]GlcNAc(b1-4)GlcNAc
# Summary of the method: as §1
# [6] = biological target: GlcNAc(b1-4)Gal(b1-4)GlcNAc
# Summary of the method: as §1
# [7] = biological target: GlcNAc(b1-4)GlcNAc(b1-4)GlcNAc
# Summary of the method: as §1
# [8] = biological target: GlcNAc(b1-4)GlcNAc(b1-4)GlcNAc(b1-4)GlcNAc(b1-4)GlcNAc
# Summary of the method: as §1
# [9] = biological target: GlcNAc(b1-4)GlcNAc(b1-4)GlcNAc(b1-4)GlcNAc(b1-4)GlcNAc(b1-4)GlcNAc
# Summary of the method: as §1
# [10] = biological target: GlcNAc(b1-4)[GlcNAc(b1-6)]GalNAc
# Summary of the method: as §1
# [11] = biological target: GlcNAc(b1-6)Gal(b1-4)GlcNAc
# Summary of the method: as §1
# GlcNAc(b1-6)GalNAc = biological target: GlcNAc(b1-6)GalNAc
# Summary of the method: as §1
# Kdn(a2-3)Gal(b1-3)GlcNAc = biological target: Kdn(a2-3)Gal(b1-3)GlcNAc
# Summary of the method: as §1
# Kdn(a2-3)Gal(b1-4)GlcNAc = biological target: Kdn(a2-3)Gal(b1-4)GlcNAc
# Summary of the method: as §1
# [12] = biological target: Man(a1-2)Man(a1-2)Man(a1-3)Man
# Summary of the method: as §1
# [13] = biological target: Man(a1-2)Man(a1-2)Man(a1-3)[Man(a1-2)Man(a1-3)[Man(a1-2)Man(a1-6)]Man(a1-6)]Man(b1-4)GlcNAc(b1-4)GlcNAc
# Summary of the method: as §1
# [14] = biological target: Man(a1-2)Man(a1-2)Man(a1-3)[Man(a1-2)Man(a1-6)[Man(a1-3)]Man(a1-6)]Man(b1-4)GlcNAc(b1-4)GlcNAc
# Summary of the method: as §1
# [15] = biological target: Man(a1-2)Man(a1-2)Man(a1-6)[Man(a1-3)]Man
# Summary of the method: as §1
# Man(a1-2)Man(a1-3)Man = biological target: Man(a1-2)Man(a1-3)Man
# Summary of the method: as §1
# [16] = biological target: Man(a1-2)Man(a1-3)[Man(a1-2)Man(a1-6)]Man
# Summary of the method: as §1
# [17] = biological target: Man(a1-2)Man(a1-3)[Man(a1-2)Man(a1-6)]Man(a1-6)[Man(a1-2)Man(a1-2)Man(a1-3)]Man(b1-4)GlcNAc(b1-4)GlcNAc
# Summary of the method: as §1
# [18] = biological target: Man(a1-2)Man(a1-3)[Man(a1-2)Man(a1-6)]Man(a1-6)[Man(a1-3)[Man(a1-6)]Man(a1-6)]Man(b1-4)GlcNAc(b1-4)GlcNAc
# Summary of the method: as §1
# [19] = biological target: Man(a1-2)Man(a1-3)[Man(a1-3)[Man(a1-6)]Man(a1-6)]Man(b1-4)GlcNAc(b1-4)GlcNAc
# Summary of the method: as §1
# [20] = biological target: Man(a1-2)Man(a1-3)[Man(a1-6)]Man(a1-6)[Man(a1-2)Man(a1-3)]Man(b1-4)GlcNAc(b1-4)GlcNAc
# Summary of the method: as §1
# [21] = biological target: Man(a1-2)Man(a1-6)[Man(a1-3)]Man(a1-6)[Man(a1-2)Man(a1-2)Man(a1-3)]Man(b1-4)GlcNAc(b1-4)GlcNAc
# Summary of the method: as §1
# Man(a1-3)[Man(a1-6)]Man = biological target: Man(a1-3)[Man(a1-6)]Man
# Summary of the method: as §1
# [22] = biological target: Man(a1-3)[Man(a1-6)]Man(a1-6)[Man(a1-3)]Man(b1-4)GlcNAc(b1-4)GlcNAc
# Summary of the method: as §1
# [23] = biological target: Man(a1-3)[Man(a1-6)]Man(b1-4)GlcNAc(b1-4)GlcNAc
# Summary of the method: as §1
# Man(b1-4)GlcNAc = biological target: Man(b1-4)GlcNAc
# Summary of the method: as §1
# Neu5Ac(a2-3)Gal = biological target: Neu5Ac(a2-3)Gal
# Summary of the method: as §1
# [24] = biological target: Neu5Ac(a2-3)Gal(b1-3)GalNAc
# Summary of the method: as §1
# [25] = biological target: Neu5Ac(a2-3)Gal(b1-3)GalNAc(b1-3)Gal(a1-4)Gal(b1-4)Glc
# Summary of the method: as §1
# [26] = biological target: Neu5Ac(a2-3)Gal(b1-3)GalNAc(b1-4)[Neu5Ac(a2-3)]Gal(b1-4)Glc
# Summary of the method: as §1
# [27] = biological target: Neu5Ac(a2-3)Gal(b1-3)GalNAc6S
# Summary of the method: as §1
# [28] = biological target: Neu5Ac(a2-3)Gal(b1-3)GlcNAc
# Summary of the method: as §1
# [29] = biological target: Neu5Ac(a2-3)Gal(b1-3)GlcNAc(b1-3)Gal(b1-3)GlcNAc
# Summary of the method: as §1
# [30] = biological target: Neu5Ac(a2-3)Gal(b1-3)GlcNAc(b1-3)Gal(b1-4)GlcNAc
# Summary of the method: as §1
binder,measurement,setting,value
B1,glycan array binding signal (z-score),GlcNAc(b1-3)GalNAc,-0.513
same,glycan array binding signal (z-score),[1],-0.089
same,glycan array binding signal (z-score),[2],-0.621
same,glycan array binding signal (z-score),[3],-0.356
same,glycan array binding signal (z-score),[4],-0.453
same,glycan array binding signal (z-score),[5],-0.435
same,glycan array binding signal (z-score),[6],-0.449
same,glycan array binding signal (z-score),[7],-0.54
same,glycan array binding signal (z-score),[8],-0.636
same,glycan array binding signal (z-score),[9],-0.499
same,glycan array binding signal (z-score),[10],-0.524
same,glycan array binding signal (z-score),[11],-0.592
same,glycan array binding signal (z-score),GlcNAc(b1-6)GalNAc,-0.448
same,glycan array binding signal (z-score),Kdn(a2-3)Gal(b1-3)GlcNAc,-0.588
same,glycan array binding signal (z-score),Kdn(a2-3)Gal(b1-4)GlcNAc,-0.316
same,glycan array binding signal (z-score),[12],-0.403
same,glycan array binding signal (z-score),[13],-0.329
same,glycan array binding signal (z-score),[14],0.292
same,glycan array binding signal (z-score),[15],-0.447
same,glycan array binding signal (z-score),Man(a1-2)Man(a1-3)Man,-0.171
same,glycan array binding signal (z-score),[16],-0.478
same,glycan array binding signal (z-score),[17],0.214
same,glycan array binding signal (z-score),[18],-0.296
same,glycan array binding signal (z-score),[19],-0.063
same,glycan array binding signal (z-score),[20],-0.19
same,glycan array binding signal (z-score),[21],-0.497
same,glycan array binding signal (z-score),Man(a1-3)[Man(a1-6)]Man,-0.303
same,glycan array binding signal (z-score),[22],-0.243
same,glycan array binding signal (z-score),[23],-0.064
same,glycan array binding signal (z-score),Man(b1-4)GlcNAc,-0.529
same,glycan array binding signal (z-score),Neu5Ac(a2-3)Gal,-0.319
same,glycan array binding signal (z-score),[24],-0.293
same,glycan array binding signal (z-score),[25],-0.264
same,glycan array binding signal (z-score),[26],0.021
same,glycan array binding signal (z-score),[27],-0.272
same,glycan array binding signal (z-score),[28],-0.365
same,glycan array binding signal (z-score),[29],-0.619
same,glycan array binding signal (z-score),[30],-0.849

# — the supplement of paper PMC8728848
